According to publication PMC6919601, “Identification of Plasmodium dipeptidyl aminopeptidase allosteric inhibitors by high throughput screening” (PLoS ONE, 2019):
The campaign covered roughly 110,000 compounds. About 230 (0.21%) showed an effect of 50% or more. Some of the results follow.

Target: DPAP1 (Plasmodium falciparum, UniProt Q8IIJ9)
Experiment: primary screen, percent inhibition; read by cleavage of a fluorogenic dipeptide substrate; higher = more effect of the substance
Parameters: species or system P. falciparum D10 trophozoite lysates; single well
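Further: 30 min substrate incubation versus DMSO and 10 µM JCP410 controls.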

Chain of DPAP1 (Q8IIJ9 whole entry, looked up): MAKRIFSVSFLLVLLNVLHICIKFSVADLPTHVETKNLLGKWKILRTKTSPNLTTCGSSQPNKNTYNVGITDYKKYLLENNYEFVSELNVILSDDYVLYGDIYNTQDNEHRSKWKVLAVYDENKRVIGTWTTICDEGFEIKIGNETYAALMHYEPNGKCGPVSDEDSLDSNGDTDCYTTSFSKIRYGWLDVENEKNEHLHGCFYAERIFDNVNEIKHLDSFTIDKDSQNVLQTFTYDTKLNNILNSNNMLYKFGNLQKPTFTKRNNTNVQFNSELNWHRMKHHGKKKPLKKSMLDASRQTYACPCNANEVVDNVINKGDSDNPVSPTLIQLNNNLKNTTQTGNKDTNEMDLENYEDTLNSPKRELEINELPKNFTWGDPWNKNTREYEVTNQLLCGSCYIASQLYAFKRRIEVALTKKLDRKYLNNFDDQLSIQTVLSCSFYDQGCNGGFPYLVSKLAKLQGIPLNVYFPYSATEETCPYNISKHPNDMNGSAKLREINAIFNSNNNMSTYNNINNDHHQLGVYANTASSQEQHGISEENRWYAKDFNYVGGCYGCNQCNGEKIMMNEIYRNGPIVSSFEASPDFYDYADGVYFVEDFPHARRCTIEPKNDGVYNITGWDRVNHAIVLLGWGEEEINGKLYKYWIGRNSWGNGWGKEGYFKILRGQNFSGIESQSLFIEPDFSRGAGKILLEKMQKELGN

**Q.** Which “% Inhibition @ 10 uM” value does the source give for COc1ccccc1CNc1ccc(Br)cn1 here?
**A.** -14.8%

**Q.** Which “% Inhibition @ 10 uM” value does the source give for CCN(CC(O)COc1ccc2ccccc2c1)S(=O)(=O)O (centres unmarked) here?
**A.** -3.48%

**Q.** How did the “% Inhibition @ 10 uM” value turn out when O=C1c2ccccc2-c2nnc(-c3cccnc3)cc21 was run?
**A.** -6.11%

**Q.** For COc1cc(-c2onc3ccc(Cl)cc23)cc(OC)c1OC, which “% Inhibition @ 10 uM” value is on record?
**A.** -4.03%

**Q.** With CCCCN(CCCC)Cc1nc(O)c2c(n1)-c1ccccc1CC21CCCCC1 as the compound, how does the “% Inhibition @ 10 uM” value read?
**A.** 2.6%

**Q.** For O=C(c1ccc([N+](=O)[O-])o1)N1CCN(c2cccc(Cl)c2)CC1, which “% Inhibition @ 10 uM” value is on record?
**A.** 0.0792%

**Q.** With CC(C)(C)c1ccc(-c2nnc(SCC(=O)N3CCOCC3)o2)cc1 as the compound, how does the “% Inhibition @ 10 uM” value read?
**A.** -5.29%

**Q.** How did the “% Inhibition @ 10 uM” value turn out when CCCN1CC2=C(N=C(S)NC2c2ccc(N(C)C)cc2)/C(=C/c2ccc(N(C)C)cc2)C1 (centres unmarked) was run?
**A.** 1.29%

**Q.** How did the “% Inhibition @ 10 uM” value turn out when Fc1ccc(-c2noc3ncnc(NCCCN4CCOCC4)c23)cc1 was run?
**A.** -6.14%

**Q.** For Cc1cc(C)n(-c2nc3ccccc3nc2N2CCN(S(=O)(=O)c3ccc(F)c(C)c3)CC2)n1, which “% Inhibition @ 10 uM” value is on record?
**A.** 2.94%

**Q.** How did the “% Inhibition @ 10 uM” value turn out when Cc1cc(Cl)ccc1OC(C)c1nc(-c2ccc(OCC(N)=O)cc2)no1 (centres unmarked) was run?
**A.** -6.23%

**Q.** COC(=O)c1[nH]c2sc3c(c2c1N)CCCC3 was tested. Which “% Inhibition @ 10 uM” value did it give?
**A.** 3.3%

**Q.** With COc1cc(C(=O)Nc2nc3nc(C)c(C)c(O)n3n2)cc(OC)c1OC as the compound, how does the “% Inhibition @ 10 uM” value read?
**A.** -1.31%

**Q.** How did the “% Inhibition @ 10 uM” value turn out when Cc1noc2ncnc(N3CCCC(C(=O)NC4CCCCCC4)C3)c12 (centres unmarked) was run?
**A.** 1.84%

**Q.** Which “% Inhibition @ 10 uM” value does the source give for CN1CCCN(CC(c2ccccc2)c2ccccc2)CC1 here?
**A.** -0.603%

**Q.** How did the “% Inhibition @ 10 uM” value turn out when CCN1CCN(Cc2nc3c(c(=O)n(C)c(=O)n3C)n2Cc2ccc(Cl)cc2Cl)CC1 was run?
**A.** -6.06%

**Q.** For O=C(NCCCn1ccnc1)c1ccccc1Br, which “% Inhibition @ 10 uM” value is on record?
**A.** -3.63%

**Q.** N#Cc1cc2c(nc1SCC(=O)Nc1nccs1)CCCCC2 was tested. Which “% Inhibition @ 10 uM” value did it give?
**A.** -5.07%

**Q.** Cn1c(O)cc(=O)nc1SCc1ccccc1 was tested. Which “% Inhibition @ 10 uM” value did it give?
**A.** 0.135%

**Q.** Cc1cc(NC(=O)CN2CCN(Cc3ccccc3)CC2)no1 was tested. Which “% Inhibition @ 10 uM” value did it give?
**A.** 4.57%

**Q.** With CC(=O)c1cc2c(cc1NC(=O)C(C)C)OCO2 as the compound, how does the “% Inhibition @ 10 uM” value read?
**A.** -0.872%

**Q.** For CCC(C(=O)Nc1nc2nc(C)c(Cl)c(O)n2n1)c1ccccc1 (centres unmarked), which “% Inhibition @ 10 uM” value is on record?
**A.** -4.91%

**Q.** How did the “% Inhibition @ 10 uM” value turn out when O=C(c1cc(-c2ccncc2)nc2ccccc12)N1CCCCC1 was run?
**A.** -7.35%

**Q.** How did the “% Inhibition @ 10 uM” value turn out when CC(C)CCn1c(SCc2ccc(Cl)cc2)nc2nccnc2c1=O was run?
**A.** 3.92%

**Q.** Cc1cc2cc(CNC(=O)c3ccccc3C(F)(F)F)ccc2[nH]1 was tested. Which “% Inhibition @ 10 uM” value did it give?
**A.** -5.58%

**Q.** How did the “% Inhibition @ 10 uM” value turn out when O=C(Nc1ccc(N2CCCCC2)cc1)c1cccnc1 was run?
**A.** -2.51%

**Q.** For Nc1nc(-c2ccc(F)cc2)cs1, which “% Inhibition @ 10 uM” value is on record?
**A.** -8.19%

**Q.** How did the “% Inhibition @ 10 uM” value turn out when O=c1c(=O)n(Cc2cccc(C(F)(F)F)c2)ccn1Cc1ccc(Cl)cc1 was run?
**A.** 1.51%

**Q.** COc1ccc(C2CC3=NC(C)=C(C(=O)Nc4ccccn4)C(c4cccc(OC)c4)C3=C(O)C2)cc1 (centres unmarked) was tested. Which “% Inhibition @ 10 uM” value did it give?
**A.** 0.343%

**Q.** With CCNC(=O)/C(=C\c1ccco1)NC(=O)c1ccccc1Cl as the compound, how does the “% Inhibition @ 10 uM” value read?
**A.** 4%

**Q.** Which “% Inhibition @ 10 uM” value does the source give for CCOC(=O)Cn1c(=S)sc2ccccc21 here?
**A.** -1.5%

**Q.** How did the “% Inhibition @ 10 uM” value turn out when O=C(N/C(=C\c1ccco1)C(=O)N1CCOCC1)c1ccc(Br)o1 was run?
**A.** -2.78%

**Q.** Which “% Inhibition @ 10 uM” value does the source give for Clc1cccc2c(N3CCN(c4ccccn4)CC3)cnnc12 here?
**A.** -6.14%

**Q.** How did the “% Inhibition @ 10 uM” value turn out when Cc1ccccc1CS(=O)(=O)Cc1ccc(C(=O)NCCCN2CCCC2=O)o1 was run?
**A.** -7.35%

**Q.** With N#C/C(=C\c1cccs1)c1nc(-c2ccc(Cl)cc2)cs1 as the compound, how does the “% Inhibition @ 10 uM” value read?
**A.** 3.06%

**Q.** Which “% Inhibition @ 10 uM” value does the source give for Cc1ccc(S(=O)(=O)N(CC(=O)NC2CCCC2)c2cccc(C(F)(F)F)c2)cc1 here?
**A.** -3.49%

**Q.** How did the “% Inhibition @ 10 uM” value turn out when O=C(c1ccco1)N1CCN(Cc2ccccc2Br)CC1 was run?
**A.** 7.1%

**Q.** With CC(C)C(NC(=O)C1CCCCC1)C(=O)NC1CCN(Cc2ccccc2)CC1 (centres unmarked) as the compound, how does the “% Inhibition @ 10 uM” value read?
**A.** -0.228%

**Q.** For Cc1cc2nc(-c3ccc(C)s3)cc(C(F)(F)F)n2n1, which “% Inhibition @ 10 uM” value is on record?
**A.** -2.85%

**Q.** O=C(c1ccc(S(=O)(=O)N2CCCCC2)cc1)N1CCN(c2ccccc2)CC1 was tested. Which “% Inhibition @ 10 uM” value did it give?
**A.** -3.83%

**Q.** How did the “% Inhibition @ 10 uM” value turn out when COC(=O)C1=CN(Cc2ccc(OC)cc2)C=C(C(=O)OC)C1c1cc(OC)ccc1OC was run?
**A.** 1.86%

**Q.** Which “% Inhibition @ 10 uM” value does the source give for Cc1ccc2cccc(O)c2[n+]1[O-] here?
**A.** 1.12%

**Q.** With CCCCCOC(=O)C1=C(C)NC(=O)NC1c1cccc(Br)c1 (centres unmarked) as the compound, how does the “% Inhibition @ 10 uM” value read?
**A.** -2.58%

**Q.** With CC1(C)CC(=O)C2=C(C1)C(c1ccc3c(c1)OCO3)c1c(O)nc(O)nc1N2 (centres unmarked) as the compound, how does the “% Inhibition @ 10 uM” value read?
**A.** 3.05%

**Q.** For Cc1ccc2nc(O)c3cc(C(=O)NCCN(C)C)sc3c2c1, which “% Inhibition @ 10 uM” value is on record?
**A.** -3.94%

**Q.** Which “% Inhibition @ 10 uM” value does the source give for O=C(O)c1ccc2c(c1)C(=O)N(c1ccc(Cl)c(C(=O)O)c1)C2=O here?
**A.** -0.305%

**Q.** How did the “% Inhibition @ 10 uM” value turn out when O=C(C(Cc1ccccc1)NS(=O)(=O)c1cccc2nsnc12)N1CCC2(CC1)OCCO2 (centres unmarked) was run?
**A.** -1.43%

**Q.** CCC(=O)c1c(-c2ccccc2)nc2n(Cc3ccccc3)c3ccccc3n12 was tested. Which “% Inhibition @ 10 uM” value did it give?
**A.** -5.52%

**Q.** With CC(C)(C)CC(C)(C)NC(=O)c1ccc2snnc2c1 as the compound, how does the “% Inhibition @ 10 uM” value read?
**A.** -0.0235%

**Q.** For Cc1cccc(C(OCCN(C)C)c2ccccc2)c1 (centres unmarked), which “% Inhibition @ 10 uM” value is on record?
**A.** -5.01%
